Experimental data from US9073885B2, “Vitamin D3 lactone derivatives” (Teijin Pharma Limited, priority 2003, dated 2015).
For at least one compound, name, drawing or mass did not settle the structure. Some of these results come from one statement about several compounds together.

Columns and labels:
HL-60 cells = assay: Vitamin D3 antagonist action: inhibition of HL-60 cell differentiation induced by 1α,25-dihydroxyvitamine D3 (NBT reducing activity); format: cell-based; details: inhibition of NBT reducing activity induced by 1×10^-8 M 1α,25-dihydroxyvitamine D3, 4 days
[1] = target: T1, 1α,25-dihydroxyvitamine D3 receptor (VDR) (Gallus gallus, UniProt O42392); assay: Binding affinity to the 1α,25-dihydroxyvitamine D3 receptor (VDR) in chicken small intestinal mucosal cells; details: relative intensity ratio of the concentration inhibiting 50% of [26,27-methyl-3H]1α,25-dihydroxyvitamine D3 binding; 1α,25-dihydroxyvitamine D3 = 1
T1 construct: 0.2 mg of the 1α,25-dihydroxyvitamine D3 receptor protein in chicken small intestinal mucosal cells; from tissue; host or cells: chicken small intestinal mucosal cells
T1 sequence (O42392 1-451): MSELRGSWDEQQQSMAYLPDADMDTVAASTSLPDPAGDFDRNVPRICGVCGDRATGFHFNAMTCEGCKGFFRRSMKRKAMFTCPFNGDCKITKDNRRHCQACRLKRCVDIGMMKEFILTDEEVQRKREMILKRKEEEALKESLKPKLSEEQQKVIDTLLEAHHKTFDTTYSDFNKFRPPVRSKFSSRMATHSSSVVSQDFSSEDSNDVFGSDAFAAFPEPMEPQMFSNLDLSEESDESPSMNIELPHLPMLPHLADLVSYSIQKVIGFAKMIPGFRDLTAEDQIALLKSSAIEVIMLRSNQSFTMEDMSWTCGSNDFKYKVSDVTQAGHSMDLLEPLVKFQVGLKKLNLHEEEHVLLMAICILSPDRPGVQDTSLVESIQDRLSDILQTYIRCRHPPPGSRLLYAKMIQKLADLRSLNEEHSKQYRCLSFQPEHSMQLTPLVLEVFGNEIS

Structure (SMILES)	IC50 (HL-60 cells) [nM]	VDR Affinity [1]
C=C1C(=CC=C2CCCC3(C)C2CCC3C(C)CC2OC(=O)C(=C)C2c2ccccc2)CC(O)C(CCCO)C1O [Compound No. 810b, 2α-(3-hydroxypropyl)-20(R)-(tetrahydro-3-methylene-2-furanone-4(S)-phenyl-5(S)-yl)methyl-9,10-secopregna-5(Z),7(E),10(19)-triene-1α,3β-diol]	< 10	1-1/5
C=C1C(=CC=C2CCCC3(C)C2CCC3C(C)CC2OC(=O)C(=C)C2c2ccccc2)CC(O)C(CCCO)C1O [Compound No. 810c, 2α-(3-hydroxypropyl)-20(R)-(tetrahydro-3-methylene-2-furanone-4(R)-phenyl-5(S)-yl)methyl-9,10-secopregna-5(Z),7(E),10(19)-triene-1α,3β-diol]	< 10	1-1/5
C=C1C(=CC=C2CCCC3(C)C2CCC3C(C)CC2OC(=O)C(=C)C2c2ccccc2)CC(O)C(CCCO)C1O [Compound No. 810d, 2α-(3-hydroxypropyl)-20(R)-(tetrahydro-3-methylene-2-furanone-4(S)-phenyl-5(R)-yl)methyl-9,10-secopregna-5(Z),7(E),10(19)-triene-1α,3β-diol]	10 to 100	1/5-1/10
C=C1C(=CC=C2CCCC3(C)C2CCC3C(C)CC2OC(=O)C(=C)C2(C)C)CC(O)C(CCCO)C1O [Compound No. 812a, 2α-(3-hydroxypropyl)-20(R)-(tetrahydro-3-methylene-2-furanone-4,4-dimethyl-5(R)-yl)methyl-9,10-secopregna-5(Z),7(E),10(19)-triene-1α,3β-diol]	< 10	1-1/5
C=C1/C(=C\C=C2/CCC[C@]3(C)[C@@H]([C@H](C)C[C@@H]4OC(=O)C(=C)C4(C)C)CC[C@@H]23)C[C@@H](O)[C@H](CCCO)[C@@H]1O [Compound No. 812b, 2α-(3-hydroxypropyl)-20(R)-(tetrahydro-3-methylene-2-furanone-4,4-dimethyl-5(S)-yl)methyl-9,10-secopregna-5(Z),7(E),10(19)-triene-1α,3β-diol]	< 10	1-1/5
C=C1CC(CC(C)C2CCC3C(=CC=C4CC(O)C(OCCCO)C(O)C4=C)CCCC32C)OC1=O [Compound No. 1101a, 2α-(3-hydroxypropoxy)-20(R)-(tetrahydro-3-methylene-2-furanone-5(R)-yl)methyl-9,10-secopregna-5(Z),7(E),10(19)-triene-1α,3β-diol]	10 to 100	1-1/5
C=C1CC(CC(C)C2CCC3C(=CC=C4CC(O)C(OCCCO)C(O)C4=C)CCCC32C)OC1=O [Compound No. 1101b, 2α-(3-hydroxypropoxy)-20(R)-(tetrahydro-3-methylene-2-furanone-5(S)-yl)methyl-9,10-secopregna-5(Z),7(E),10(19)-triene-1α,3β-diol]	< 10	1/5-1/10
C=C1C(=CC=C2CCCC3(C)C2CCC3C(C)CC2OC(=O)C(=C)C2c2ccccc2)CC(O)C(OCCCO)C1O [Compound No. 1110a, 2α-(3-hydroxypropoxy)-20(R)-(tetrahydro-3-methylene-2-furanone-4(R)-phenyl-5(R)-yl)methyl-9,10-secoprejna-5(Z),7(E),10(19)-triene-1α,3β-diol]	< 10	1-1/5
C=C1C(=CC=C2CCCC3(C)C2CCC3C(C)CC2OC(=O)C(=C)C2c2ccccc2)CC(O)C(OCCCO)C1O [Compound No. 1110b, 2α-(3-hydroxypropoxy)-20(R)-(tetrahydro-3-methylene-2-furanone-4(S)-phenyl-5(S)-yl)methyl-9,10-secopregna-5(Z),7(E),10(19)-triene-1α,3β-diol]	< 10	1-1/5
C=C1C(=CC=C2CCCC3(C)C2CCC3C(C)CC2OC(=O)C(=C)C2c2ccccc2)CC(O)C(OCCCO)C1O [Compound No. 1110c, 2α-(3-hydroxypropoxy)-20(R)-(tetrahydro-3-methylene-2-furanone-4(R)-phenyl-5(S)-yl)methyl-9,10-secopregna-5(Z),7(E),10(19)-triene-1α,3β-diol]	< 10	1-1/5
C=C1C(=CC=C2CCCC3(C)C2CCC3C(C)CC2OC(=O)C(=C)C2c2ccccc2)CC(O)C(OCCCO)C1O [Compound No. 1110d, 2α-(3-hydroxypropoxy)-20(R)-(tetrahydro-3-methylene-2-furanone-4(S)-phenyl-5(R)-yl)methyl-9,10-secopregna-5(Z),7(E),10(19)-triene-1α,3β-diol]	10 to 100	1-1/5
C=C1C(=CC=C2CCCC3(C)C2CCC3C(C)CC2OC(=O)C(=C)C2(C)C)CC(O)C(OCCCO)C1O [Compound No. 1112a, 2α-(3-hydroxypropoxy)-20(R)-(tetrahydro-3-methylene-2-furanone-4,4-dimethyl-5(R)-yl)methyl-9,10-secopregna-5(Z),7(E),10(19)-triene-1α,3β-diol]	10 to 100	1-1/5
C=C1C(=CC=C2CCCC3(C)C2CCC3C(C)CC2OC(=O)C(=C)C2(C)C)CC(O)C(OCCCO)C1O [Compound No. 1112b, 2α-(3-hydroxypropoxy)-20(R)-(tetrahydro-3-methylene-2-furanone-4,4-dimethyl-5(S)-yl)methyl-9,10-secopregna-5(Z),7(E),10(19)-triene-1α,3β-diol]	< 10	1-1/5
